Some of these densities may be calculated back from excess volumes.
Assay: xn = mol fraction of the nth substance listed
Conditions: 100 kPa

## O=C1CCCCC1 + CCCC[n+]1ccn(C)c1.F[B-](F)(F)F
293.15 K, x2 = 0
  mass density: 947.4 kg/m3
293.15 K, x2 = 0.0736
  mass density: 981.2 kg/m3
293.15 K, x2 = 0.1128
  mass density: 997.8 kg/m3
293.15 K, x2 = 0.1597
  mass density: 1016.4 kg/m3
293.15 K, x2 = 0.2933
  mass density: 1063.1 kg/m3
293.15 K, x2 = 0.3481
  mass density: 1079.7 kg/m3
293.15 K, x2 = 0.3956
  mass density: 1093 kg/m3
293.15 K, x2 = 0.4429
  mass density: 1105.3 kg/m3
293.15 K, x2 = 0.4937
  mass density: 1117.6 kg/m3
293.15 K, x2 = 0.5344
  mass density: 1126.8 kg/m3
293.15 K, x2 = 0.5938
  mass density: 1139.2 kg/m3
293.15 K, x2 = 0.6557
  mass density: 1151 kg/m3
293.15 K, x2 = 0.7028
  mass density: 1159.3 kg/m3
293.15 K, x2 = 0.7409
  mass density: 1165.7 kg/m3
293.15 K, x2 = 0.7973
  mass density: 1174.6 kg/m3
293.15 K, x2 = 0.8564
  mass density: 1183.4 kg/m3
293.15 K, x2 = 0.9047
  mass density: 1190.2 kg/m3
298.15 K, x2 = 0.0736
  mass density: 977 kg/m3
298.15 K, x2 = 0.1128
  mass density: 993.7 kg/m3
298.15 K, x2 = 0.2045
  mass density: 1029.2 kg/m3
298.15 K, x2 = 0.2459
  mass density: 1043.7 kg/m3
298.15 K, x2 = 0.3481
  mass density: 1075.8 kg/m3
298.15 K, x2 = 0.3956
  mass density: 1089.2 kg/m3
298.15 K, x2 = 0.4429
  mass density: 1101.5 kg/m3
298.15 K, x2 = 0.4937
  mass density: 1113.8 kg/m3
298.15 K, x2 = 0.5344
  mass density: 1122.9 kg/m3
298.15 K, x2 = 0.5938
  mass density: 1135.3 kg/m3
298.15 K, x2 = 0.6557
  mass density: 1147.2 kg/m3
298.15 K, x2 = 0.7028
  mass density: 1155.5 kg/m3
298.15 K, x2 = 0.7409
  mass density: 1161.8 kg/m3
298.15 K, x2 = 0.7973
  mass density: 1170.7 kg/m3
298.15 K, x2 = 0.8564
  mass density: 1179.4 kg/m3
298.15 K, x2 = 0.9047
  mass density: 1186.2 kg/m3
303.15 K, x2 = 0
  mass density: 938.1 kg/m3
303.15 K, x2 = 0.0736
  mass density: 972.4 kg/m3
303.15 K, x2 = 0.1597
  mass density: 1008.2 kg/m3
303.15 K, x2 = 0.2045
  mass density: 1025.1 kg/m3
303.15 K, x2 = 0.2459
  mass density: 1039.7 kg/m3
303.15 K, x2 = 0.3481
  mass density: 1072.1 kg/m3
303.15 K, x2 = 0.3956
  mass density: 1085.5 kg/m3
303.15 K, x2 = 0.4429
  mass density: 1097.9 kg/m3
303.15 K, x2 = 0.4937
  mass density: 1110.3 kg/m3
303.15 K, x2 = 0.5344
  mass density: 1119.5 kg/m3
303.15 K, x2 = 0.5938
  mass density: 1131.9 kg/m3
303.15 K, x2 = 0.7028
  mass density: 1152.1 kg/m3
303.15 K, x2 = 0.7973
  mass density: 1167.3 kg/m3
303.15 K, x2 = 0.8564
  mass density: 1176 kg/m3
303.15 K, x2 = 0.9047
  mass density: 1182.7 kg/m3
308.15 K, x2 = 0
  mass density: 933.2 kg/m3
308.15 K, x2 = 0.1597
  mass density: 1004 kg/m3
308.15 K, x2 = 0.2045
  mass density: 1021 kg/m3
308.15 K, x2 = 0.2459
  mass density: 1035.7 kg/m3
308.15 K, x2 = 0.2933
  mass density: 1051.5 kg/m3
308.15 K, x2 = 0.3956
  mass density: 1081.8 kg/m3
308.15 K, x2 = 0.4429
  mass density: 1094.3 kg/m3
308.15 K, x2 = 0.4937
  mass density: 1106.6 kg/m3
308.15 K, x2 = 0.5344
  mass density: 1115.9 kg/m3
308.15 K, x2 = 0.5938
  mass density: 1128.4 kg/m3
308.15 K, x2 = 0.6557
  mass density: 1140.3 kg/m3
308.15 K, x2 = 0.7028
  mass density: 1148.7 kg/m3
308.15 K, x2 = 0.7973
  mass density: 1163.9 kg/m3
308.15 K, x2 = 0.8564
  mass density: 1172.6 kg/m3

## CCCC[n+]1ccn(C)c1.F[B-](F)(F)F + O=C1CCCCC1
293.15 K, x1 = 1
  mass density: 1203.1 kg/m3
298.15 K, x1 = 1
  mass density: 1198.9 kg/m3
303.15 K, x1 = 1
  mass density: 1195.3 kg/m3
308.15 K, x1 = 1
  mass density: 1191.7 kg/m3

— a compilation of properties of binary mixtures (doi:10.1007/s10973-016-5820-0)
